These results are taken from ChEMBL document CHEMBL4888484, “Replenishing the malaria drug discovery pipeline: Screening and hit evaluation of the MMV Hit Generation Library 1 (HGL1) against asexual blood stage Plasmodium falciparum ,using a nano luciferase reporter read-out” (2022).

About 540 (0.36%) of roughly 150,000 compounds showed an effect of 50% or more. Some of the results follow.

The test system of the experiment is Plasmodium falciparum. As to the kind of experiment: Primary screen in NF54 nanoGlo assay, in single point, at 2uM, 72h; a lower Z score goes with more inhibition. The format is functional, Erythrocyte. The note with it: timepoint 72 hour.
`C[C@H](NC(=O)C1=NCCN1)c1ccc(F)cc1`: the “% Inhibition” value is given as -10% and the Z score was found to be 0.93.

Regarding `O=C(Nc1ccc2c(c1)OCCCO2)C1C2CCC(C2)N1C(=O)c1ccccc1` (stereo unspecified), the “% Inhibition” value is on record as 15% and the Z score was -1.76.

For the compound `COCCNC(=O)c1nnn2c1CO[C@H](c1ccccc1)C2`, the “% Inhibition” value is -5% and the Z score turned out to be 0.53.

With `CCOCCOc1nc(-c2ccccc2F)n(-c2ccc(NC(=O)c3ccc(F)cc3)cc2)n1`, the “% Inhibition” value is given as -16% and the Z score amounted to 1.73.

Regarding `Cc1cc(CCC(=O)Nc2nnn[nH]2)ccc1Br`, the “% Inhibition” value is 36% and the Z score is given as -0.97.

Consider `COCCN1CN(C(=O)Nc2ccnc(C)n2)CC1=O`, for which the “% Inhibition” value was 34% and the Z score is listed as -3.82.

For the compound `O=C(c1n[nH]c2ccccc12)N1CCC(Cn2cnc(C3CC3)cc2=O)CC1`, the “% Inhibition” value is on record as -7% and the Z score turned out to be 1.04.

As to `O=C(CC1CCN(S(=O)(=O)c2cccs2)CC1)NC1CCCCC1`, the “% Inhibition” value is -15% and the Z score turned out to be 1.96.

Take `CN(Cc1ccccc1)C(=O)c1coc(CN(Cc2ccc3c(c2)OCO3)Cc2ccc(Cl)cc2Cl)n1`: the “% Inhibition” value is on record as 4% and the Z score is reported as -0.7.

On to `O=C(NC[C@@H](c1cccs1)N1CCCCC1)c1ccccc1F`, for which the “% Inhibition” value was -15% and the Z score is recorded as 2.8.

With `O=c1c2cc(Cl)ccc2ncn1C[C@H](O)COCc1ccccc1`, the “% Inhibition” value is given as -10% and the Z score was determined as 1.65.

For the compound `CCN(C(=O)c1cnn(C2CC2)c1)c1cccc(C)c1F`, the “% Inhibition” value is reported as -2% and the Z score turned out to be 0.33.

`CN(Cc1ncon1)C(=O)c1cc(Cl)cn1C`: the “% Inhibition” value is 3% and the Z score is recorded as -0.51.

Consider `COc1ccccc1NC(=O)[C@H]1CCCN(c2nc3c(s2)c(C)nn3-c2cccc(F)c2)C1`, for which the “% Inhibition” value is -11% and the Z score was found to be 1.44.

As to `O=S(=O)(c1ccc2c(c1)OCCO2)N1CCC[C@H](c2nccs2)C1`, the “% Inhibition” value is -6% and the Z score stood at 0.68.

For the compound `O=C(Cc1cscn1)Nc1cc(S(=O)(=O)N2CCOCC2)ccc1F`, the “% Inhibition” value is -10% and the Z score stood at 0.94.

For `c1ccc2c(c1)C[C@@H](c1nnc(NCc3cscn3)o1)O2`, the “% Inhibition” value is recorded as -6% and the Z score is given as 0.96.

For the compound `CC1(C)CN(C(C(=O)O)c2ccccc2)CC(COc2ccccc2)O1` (stereo unspecified), the “% Inhibition” value was 1% and the Z score is given as -0.14.

Regarding `COCC(C)(C)N(C)C(=O)c1cc(C)nc(C(F)(F)F)n1`, the “% Inhibition” value is -1% and the Z score is given as 0.08.

Take `C[C@@H](c1ccccn1)N(C)Cc1cccnc1N`: the “% Inhibition” value turned out to be 9% and the Z score is reported as -1.13.

Regarding `CCn1cncc1S(=O)(=O)N1CCC[C@H](C)C1`, the “% Inhibition” value is recorded as -8% and the Z score turned out to be 0.89.

`CC1=NS(=O)(=O)N(C)C=C1C(=O)OCc1ccc(F)c(F)c1`: the “% Inhibition” value turned out to be 7% and the Z score was -0.62.

Consider `Cc1nnc(CN(C)C[C@H]2CCN(c3ccccc3)C2)s1`, for which the “% Inhibition” value is reported as -1% and the Z score came out at 0.2.

In the case of `N#CCc1ccc(NCc2csc(C3CC3)n2)cc1`, the “% Inhibition” value is -7% and the Z score worked out at 0.74.

For `O=C(Nc1ccon1)C1CCN(S(=O)(=O)c2ccc(Br)cc2)CC1`, the “% Inhibition” value is -14% and the Z score was 2.37.

For `CCc1ccccc1CN1C[C@@H]2CC[C@H]1CN(C(=O)c1ccccc1)C2`, the “% Inhibition” value is reported as -12% and the Z score was found to be 2.

Turning to `Cc1ccc(S(=O)(=O)C(=O)Nc2sc3c(c2C(N)=O)CCCCC3)cc1`, the “% Inhibition” value is -1% and the Z score was determined as 0.11.

`O=C(CO)Nc1ccc(Cl)cc1F`: the “% Inhibition” value is -12% and the Z score was determined as 1.41.

Turning to `COc1ccc(NC(=O)Cc2nnc(Nc3ccccc3)s2)cc1OC`, the “% Inhibition” value is on record as -15% and the Z score was 1.87.

Regarding `Cn1ncc(CNC(=O)N[C@H]2CCOCC23CCCC3)n1`, the “% Inhibition” value worked out at 0% and the Z score is listed as -0.06.

As to `Cc1ccc(NC(C)Cc2ccno2)c(OCC2CCCO2)c1` (stereo unspecified), the “% Inhibition” value came out at 13% and the Z score was -1.71.

Regarding `O=C1NCCN1CC1CCN(Cc2ncnn2-c2ccccc2)CC1`, the “% Inhibition” value is on record as -10% and the Z score amounted to 1.49.

Consider `Cc1ccc(C)c(S(=O)(=O)NCC(=O)N2CC(Oc3cc(C)n(C4CC4)c(=O)c3)C2)c1`, for which the “% Inhibition” value is -17% and the Z score is listed as 1.89.

`CC(NC(=O)CC1CCCCC1)C(=O)NC1C2CCC(C2)C1C(N)=O` (stereo unspecified): the “% Inhibition” value was -1% and the Z score came to 0.16.

With `CN1CCC(NC(=O)c2n[nH]c3c2CN(C(=O)c2ccc(C(F)(F)F)cc2)CC3)CC1`, the “% Inhibition” value came to 5% and the Z score is -0.84.

As for `CC[C@@H](C(=O)Nc1c(C)cc(C)cc1C)n1cnc2onc(-c3ccc(Cl)cc3)c2c1=O`, the “% Inhibition” value turned out to be 11% and the Z score is reported as -1.61.

In the case of `Cc1occc1NC(=O)Nc1ccccc1CO`, the “% Inhibition” value is recorded as 8% and the Z score is on record as -0.89.

In the case of `O=C(CCn1ccc2ccccc21)N1CCc2nc[nH]c2C1`, the “% Inhibition” value was -6% and the Z score came out at 0.82.

Take `COc1ccc(-c2nc([C@H]3CC(=O)N(c4ccc(Cl)cc4)C3)no2)cc1OC`: the “% Inhibition” value is listed as -17% and the Z score came to 1.53.

In the case of `O=C(N[C@@]1(CCO)CCOC1)c1ccc(C(F)F)c(F)c1`, the “% Inhibition” value was -7% and the Z score was 1.17.

On to `COCc1c(C(=O)N2CCC(N3CCCCC3)CC2)cnn1-c1ncc(C)c(-c2cccs2)n1`, for which the “% Inhibition” value was -7% and the Z score turned out to be 0.95.

For `CN(Cc1csc(-c2cccs2)n1)C(=O)[C@@H](N)Cc1c[nH]cn1`, the “% Inhibition” value is reported as -2% and the Z score is 0.47.

On to `CCCN1CCN(CCCNC(=O)[C@H](C)n2nc(C)c3nn(-c4ccccc4)c(C)c3c2=O)CC1`, for which the “% Inhibition” value is -2% and the Z score is 0.29.
